Laboratory results taken from patent US20260258145A1 (CYTOMX THERAPEUTICS, published 2026).

B1: 4792^601AV1 (antibody, human IgG1, kappa)
light: QGQSGQYGSCSWNYVHIFMDCGSSGGSGGSGGSAQNLLGMVGGSDIQMTQSPSSLSASVGDRVTITCRASQDISSYLNWYQQKPGKAPKLLIYYTSRLHSGVPSRFSGSGSGTDFTFTISSLQPEDIATYYCQQGNTLPYTFGQGTKVEIKRTVAAPSVFIFPPSDEQLKSGTASVVCLLNNFYPREAKVQWKVDNALQSGNSQESVTEQDSKDSTYSLSSTLTLSKADYEKHKVYACEVTHQGLSSPVTKSFNRGEC
heavy: QVQLQESGPGLVRPSQTLSLTCTVSGYSITSDHAWSWVRQPPGRGLEWIGYISYSGITTYNPSLKSRVTISRDNSKNTLYLQMNSLRAEDTAVYYCARSLARTTAMDYWGQGSLVTVSS[… human IgG1 constant region …]
notes: It was tested as a reaction mixture after incubation in synovial fluid, so it was partly cleaved at the substrate
B2: 4792^559AV1 (antibody, human IgG1, kappa)
light: B1 light with A34Q, Q35N, N36Q, L37A, G39R, V41A
heavy: B1 heavy
notes: as for B1
B3: 4792^3457AV1 (antibody, human IgG1, kappa)
light: B1 light with A34S, Q35T, N36F, L37P, L38F, V41F
heavy: B1 heavy
notes: as for B1
B4: 4792^3458AV1 (antibody, human IgG1, kappa)
light: B1 light with A34P, Q35V, N36G, L37Y, L38T, G39S, M40S, V41L
heavy: B1 heavy
notes: as for B1
B5: 4792^3463AV1 (antibody, human IgG1, kappa)
light: B1 light with A34D, Q35W, N36L, L37Y, L38W, G39P, M40G, V41I
heavy: B1 heavy
notes: as for B1

Target: T1, human IL6R (R and D Systems, Cat No. 227-SR/CF) (human, UniProt P08887 20-358)
T1 construct: Bought protein; also called interleukin 6 receptor
T1 sequence (looked up): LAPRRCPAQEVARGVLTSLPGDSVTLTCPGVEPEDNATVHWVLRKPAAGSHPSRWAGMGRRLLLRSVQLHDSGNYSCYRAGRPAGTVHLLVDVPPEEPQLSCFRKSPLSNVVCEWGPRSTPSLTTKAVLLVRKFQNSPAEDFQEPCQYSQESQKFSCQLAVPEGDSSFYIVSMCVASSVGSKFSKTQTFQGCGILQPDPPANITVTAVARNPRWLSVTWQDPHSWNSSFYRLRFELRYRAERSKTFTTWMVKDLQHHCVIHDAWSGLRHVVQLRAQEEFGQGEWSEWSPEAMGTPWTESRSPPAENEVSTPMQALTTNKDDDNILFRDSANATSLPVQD
Experiment: ELISA on plate-coated human IL6R; binding of the activatable antibody after incubation in RA synovial fluid, compared to the binding of the parental anti-IL6R antibody

First: B1
Second: B2
The “Activation in SyF” value of the first is higher: greater than 30% for the first, 20% for the second.

First: B3
Second: B4
The “Activation in SyF” value of the first is higher: greater than 50% for the first, 20% for the second.

With B5 the “Activation in SyF” value was greater than 30%.

Where a chain is given by its changes, count along the chain named.
